Assay results: PubChem BioAssay AID651820 (National Center for Advancing Translational Sciences (NCATS), 2012)
Out of some 340,000 compounds screened, about 12,000 (3.5%) were called active. This list was built around the results that the source calls inconclusive (neither active nor inactive); the mix of calls is not that of the screen. Calls follow the shape of the dose curve; as a rule, active = well fitted inhibition curve with a large enough effect; inconclusive = small, poorly fitted or top-dose-only effect, or another doubt; inactive = no such curve, though single readings can be large or run the other way. Potencies of inconclusive entries are left out as doubtful fits.

Test: qHTS Assay for Inhibitors of Hepatitis C Virus (HCV)
Conditions: Huh7.5.1 HCVcc-Cre (HCVcc is cell-culture hepatitis C virus) infection, luciferase reporter, 44 h; activity change, negative = inhibition: at 41.8 µM (top of the series) unless noted
Summary of the method: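 HCVcc-Cre virus at an moi near 0.5 was added right after compound to cells cultured 4 h from seeding (1,000 cells/well). Luciferase activity was determined 44 h later, 15 min after substrate addition at RT.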
% is scaled to controls: 0 for no effect and ±100 for the full control effect; potency is read from the fitted curve at half-maximal effect; tags tell the direction and shape of the fitted curve.

SMILES | Potency | activity change, negative = inhibition
COc1cccc(CCc2nc3ccccc3c(=O)n2N)c1 | inactive | 
CCN(CC)S(=O)(=O)c1ccc(F)c(C(=O)NCCC(C)C)c1 | inconclusive [inhibitor, partial curve] | 
COc1ccc(C(=O)Nc2cccc(/C(C)=N/NC(=O)c3ccc([N+](=O)[O-])c(C)c3)c2)cc1OC | active: 2.82 µM | 
COc1cccc(CN(C)C(=O)c2ccc(Oc3ccccc3)cc2)c1OC | inconclusive [inhibitor, single point] | 
C=C(Cl)COc1cc(C)cc2oc(=O)cc(CC)c12 | inconclusive [inhibitor, full curve] | 
CCc1cccc2cc3c(N)c(C(=O)Nc4ccc(S(=O)(=O)N5CCCC5)cc4)sc3nc12 | inconclusive [inhibitor, full curve] | 
Cc1ccsc1C(=O)OCC(=O)NCCC1=CCCCC1 | inconclusive [inhibitor, single point] | 
O=C(Cc1ccccc1)N1CCCC(c2nc(-c3ccc(S(=O)(=O)N4CCCC4)cc3)no2)C1 (centres undefined) | inconclusive [inhibitor, single point] | 
CC(C)N(C(=O)CSc1nc2ccccc2c(=O)[nH]1)C(C)C | inactive | 
COc1ccc(C(=O)COC(=O)c2ccc(NC(=O)c3ccccc3)cc2)cc1 | active: 10 µM | 
Cc1ccc(S(=O)(=O)N2CCC(C(=O)Nc3ccccc3N3CCCC3)CC2)cc1C | inconclusive [inhibitor, full curve, poor fit] | 
Cc1ccc(S(=O)(=O)N2CCN(C(=O)Cn3c(=O)oc4ccccc43)CC2)c(C)c1 | inconclusive [inhibitor, partial curve] | 
CCN(CC)CC(=O)Nc1c(C)cccc1C | inconclusive [inhibitor, single point] | 
Cc1cc(=O)[nH]c(SCc2csc(-c3ccccc3)n2)n1 | inactive | 
Cn1c(Cc2ccccc2)nnc1SCC(=O)c1cccs1 | inactive | 
CN(C)S(=O)(=O)c1cc(NC(=O)CSc2nn(-c3ccc(Cl)cc3)c(=S)s2)ccc1Cl | active: 6.31 µM | 
COc1ncnc2c1oc1nc(C)c3c(c12)CC(C)(C)OC3 | inconclusive [inhibitor, single point] | 
Cc1cccc(N2CCN(C(=O)c3ccccc3OCc3c(C)noc3C)CC2)c1C | inconclusive [inhibitor, single point] | 
Cc1cc(NC(=O)c2cnn3c(C(F)(F)F)cc(-c4ccccc4)nc23)no1 | active: 7.08 µM | 
Cc1ccc(S(=O)(=O)N2CCN(Cc3cc4c(cc3Br)OCCO4)CC2)cc1 | inconclusive [inhibitor, single point] | 
COC(=O)[C@@]1(Cc2ccc(OC)cc2)[C@@H]2C(=CC(=O)[C@H]2CC(=O)C(=O)N(C)C)CN1C(=O)c1ccccc1 | active: 12.6 µM | 
C[C@@H](NC(=O)c1[nH]cnc1C(=O)Nc1ccccc1)c1ccccc1 | inconclusive [inhibitor, partial curve] | 
COc1ccc(CCNC(=O)c2c(O)c3ccccc3[nH]c2=O)cc1 | inactive | 
CN(Cc1cccs1)S(=O)(=O)c1cccs1 | inactive | 
CCc1c(C)c(C#N)c2nc3ccccc3n2c1NC | inactive | 

SMILES | Potency | activity change, negative = inhibition
Fc1ccc(Nc2nnc(C(F)(F)F)s2)cc1Cl |  | inconclusive: -83.9% [inhibitor]
Cc1ccccc1-c1nc(CS(=O)(=O)CC(=O)NC(C)c2ccccc2)c(C)o1 (centres undefined) | inconclusive [inhibitor, single point] | 
CN(C)C(=O)/C=C\c1cn(-c2ccccc2)nc1-c1ccc2c(c1)OCCO2 | inactive | 
C[C@H](NC(=O)N1CCn2c1nc1ccccc12)C(=O)NC1CC1 | inactive | 
Cc1ccc(CN2CCSc3ccc(C(=O)NCCCN4CCOCC4)cc32)cc1 | inactive | 
CCOc1ccc(C(CCc2ccccc2)NC(=O)c2ccccc2OC)cc1OCC (centres undefined) | inconclusive [inhibitor, single point] | 
N=c1c2c(-c3ccccc3)c(-c3ccccc3)n(Cc3ccco3)c2ncn1Cc1ccccc1 | inactive | 
O=C(N/N=C/c1c[nH]c2ccc(Br)cc12)c1ccn(Cc2ccc(Cl)cc2)n1 | inconclusive [inhibitor, single point] | 
COCCn1c(SCC(=O)Nc2ccc(NC(=O)c3ccco3)c(OC)c2)nc2ccccc2c1=O | inconclusive [inhibitor, single point] | 
Cc1c(C)n(C(=O)CSc2nccn2C)c2ccccc12 | inactive | 
COC(=O)C1=CO[C@@H](C)[C@H]2CN3CCc4c([nH]c5ccccc45)[C@@H]3C[C@H]12 | inconclusive [inhibitor, single point] | 
COc1ccc(S(=O)(=O)n2ccc(-c3ccc(OCCN(C)c4ccccn4)cc3)n2)cc1 | active: 6.31 µM | 
Cc1ccc(/C=N/n2c(=O)c(C(C)(C)C)nn3cnnc23)cc1 | inactive | 
CCC(=O)Nc1cccc(Oc2nc(C)cc(C)c2C#N)c1 | inconclusive [inhibitor, full curve] | 
CC1CCC(NC(=O)c2ccc(NC(=O)CC3SC(N4CCCC4)=NC3=O)cc2)CC1 (centres undefined) | inconclusive [inhibitor, partial curve] | 
COc1ccccc1C(=O)N1CCN(c2nc3cc(C)c(C)cc3cc2C#N)CC1 | inconclusive [inhibitor, single point] | 
O=C1c2ccccc2N[C@@H]2C=CC[C@@H]2N1O | inactive | 
CCOc1ccc(S(=O)(=O)N(CC(=O)N/N=C/c2cccs2)c2ccc(C)cc2)cc1 | inconclusive [inhibitor, single point] | 
Cc1ccc(-n2c(C)cc(/C=N/Nc3ccc([N+](=O)[O-])cn3)c2C)cc1 | inconclusive [inhibitor, single point] | 
COc1ccc(NC(=O)c2cc(-c3cc(OC)c(OC)c(OC)c3)nc3ccccc23)c(OC)c1 | inconclusive [inhibitor, full curve, poor fit] | 
COc1ccccc1N1CCN(/N=C/c2cccc(OC)c2OC)CC1 | inactive | 
O=C(Nc1ccc(S(=O)(=O)N2CCOCC2)cc1)c1cc(-c2cc(Cl)ccc2O)n[nH]1 | active: 10 µM | 
CCOc1ccc(NS(=O)(=O)c2ccc(C(=O)NCc3cccnc3)cc2)cc1 | inconclusive [inhibitor, partial curve] | 
C=CCn1c(-c2cccc(OC)c2OC)n[nH]c1=S | inconclusive [inhibitor, partial curve] | 
COCCCNC(=O)Nc1ccc(F)cc1F | inactive | 

SMILES | Potency | activity change, negative = inhibition
CN(Cc1ccc(OCC(O)CN2CCCCC2)cc1)Cc1ccnc2ccccc12 (centres undefined) | active: 5.62 µM | 
COc1cc(Cl)c(C)cc1NC(=O)CSc1ccccc1 | inconclusive [inhibitor, partial curve] | 
CC(C)n1ncc2c(C(=O)NCC(=O)Nc3ccccc3Br)cc(C3CC3)nc21 | inactive | 
COc1ccc(-c2cc(C(=O)NCCN3CCOCC3)no2)cc1OC | inactive | 
CCOc1ccc(OCCC(=O)Nc2cccc(S(=O)(=O)N3CCCC3)c2)cc1 | active: 11.2 µM | 
Cc1ccc(NC(=O)C(Cc2ccccc2)N2C(=O)C3C4CCC(C4)C3C2=O)cc1Cl (centres undefined) | inconclusive [inhibitor, single point] | 
COc1ccc(CCNC(=O)CC(c2ccccc2)c2cc(C)ccc2O)cc1OC (centres undefined) | active: 10 µM | 
CCCCn1cnc2c(SCc3ccccc3F)nc(N)nc21 | inactive | 
CCN(CC(=O)NCc1ccc(F)cc1)C(=O)c1ccc(COc2ccccc2)cc1 | inconclusive [inhibitor, partial curve, poor fit] | 
NC1=NC[C@@H](Cc2ccc(O)cc2)N1CCCCC1CCCCC1 | inactive | 
O=C(CCNC(=O)c1ccc(Cl)cc1)Nc1ccccc1N1CCCC1 | inactive | 
CC1CCCN(c2ccc(C(=O)NCC3CCCO3)cn2)C1 (centres undefined) | inconclusive [inhibitor, single point] | 
O=C(c1ccco1)N1CCN(S(=O)(=O)c2ccc(C3CCCCC3)cc2)CC1 | inconclusive [inhibitor, partial curve] | 
Cc1cc2c(NC(=O)Nc3ccc(C(C)(C)C)cc3)cccc2nn1 | active: 14.1 µM | 
COc1ccc(C2C(C#N)=C(N)Oc3c2sc2nc(C)cc(C)c32)cc1 (centres undefined) | inconclusive [inhibitor, single point] | 
Nc1nc2n(n1)C(=O)CC(c1ccc(Cl)cc1)N2 (centres undefined) | inactive | 
O=c1c2ccccc2nnn1CSc1nnc(COc2ccc(Cl)cc2)n1Cc1ccco1 | inconclusive [inhibitor, single point] | 
COc1ccc(Cl)cc1NC(=O)COC(=O)CNC(=O)C1CCCCC1 | inconclusive [inhibitor, single point] | 
CCNC(=O)NC(=O)COc1ccccc1C#N | inactive | 
COc1ccc(/C(C)=N/Nc2nncc3ccccc23)cc1 | inconclusive [inhibitor, partial curve] | 
CC(=O)N(/N=C/c1ccc(C)cc1)c1nc(CCl)cs1 | inactive | 
O=C(NCC(c1ccco1)N1CCc2ccccc2C1)c1ccc(Br)cc1 (centres undefined) | inconclusive [inhibitor, single point] | 
O=C1c2cccc3c(N4CCCCC4)ccc(c23)C(=O)N1c1ccccc1O | inconclusive [inhibitor, single point] | 
Cc1ccc(S(=O)(=O)N2Cc3ccccc3-n3nncc3C2)cc1 | inconclusive [inhibitor, single point] | 
